Assay results: publication PMC5571105
Results are given in words; binding and its absence hold for the method and conditions named. Some entries that bind do so weakly or less than the wild type.

Assays:
OsPRR1 (rice) [1] = target: T1, OsPRR1 (rice) (UniProt Q689G9); assay: two-hybrid; β-galactosidase filter lift assay (LacZ reporter) of the co-transformed yeast colonies, X-gal as substrate, 30 °C in the dark
T1 sequence: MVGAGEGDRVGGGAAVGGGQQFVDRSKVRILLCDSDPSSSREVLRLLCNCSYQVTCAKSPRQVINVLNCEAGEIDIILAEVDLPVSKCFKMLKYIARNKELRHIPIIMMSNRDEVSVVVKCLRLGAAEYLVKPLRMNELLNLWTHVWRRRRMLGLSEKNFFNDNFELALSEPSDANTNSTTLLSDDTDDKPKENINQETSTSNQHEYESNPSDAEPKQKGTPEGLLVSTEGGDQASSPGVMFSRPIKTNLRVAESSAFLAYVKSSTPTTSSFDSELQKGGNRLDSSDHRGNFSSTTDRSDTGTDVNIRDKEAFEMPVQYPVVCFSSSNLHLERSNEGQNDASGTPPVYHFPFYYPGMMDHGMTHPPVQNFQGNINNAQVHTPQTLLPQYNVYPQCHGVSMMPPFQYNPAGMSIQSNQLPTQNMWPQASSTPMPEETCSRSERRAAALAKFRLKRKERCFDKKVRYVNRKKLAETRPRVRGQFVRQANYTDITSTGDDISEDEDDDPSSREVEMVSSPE

OsPRR1 (rice) [2] = target: T1, OsPRR1 (rice); assay: two-hybrid; S. cerevisiae AH109; bait in pGBD-C1 (GAL4 binding domain; written as target), prey in pGAD-C1 (GAL4 activation domain; written as binder); serial dilutions spotted on triple drop-out medium with 5 mM 3-AT (HIS3) and quadruple drop-out medium (ADE2), 30 °C; growth on quadruple drop-out shows strong interaction
OsPRR73 (rice) = target: T2, OsPRR73 (rice) (UniProt Q10N34); assay: as above
T2 sequence: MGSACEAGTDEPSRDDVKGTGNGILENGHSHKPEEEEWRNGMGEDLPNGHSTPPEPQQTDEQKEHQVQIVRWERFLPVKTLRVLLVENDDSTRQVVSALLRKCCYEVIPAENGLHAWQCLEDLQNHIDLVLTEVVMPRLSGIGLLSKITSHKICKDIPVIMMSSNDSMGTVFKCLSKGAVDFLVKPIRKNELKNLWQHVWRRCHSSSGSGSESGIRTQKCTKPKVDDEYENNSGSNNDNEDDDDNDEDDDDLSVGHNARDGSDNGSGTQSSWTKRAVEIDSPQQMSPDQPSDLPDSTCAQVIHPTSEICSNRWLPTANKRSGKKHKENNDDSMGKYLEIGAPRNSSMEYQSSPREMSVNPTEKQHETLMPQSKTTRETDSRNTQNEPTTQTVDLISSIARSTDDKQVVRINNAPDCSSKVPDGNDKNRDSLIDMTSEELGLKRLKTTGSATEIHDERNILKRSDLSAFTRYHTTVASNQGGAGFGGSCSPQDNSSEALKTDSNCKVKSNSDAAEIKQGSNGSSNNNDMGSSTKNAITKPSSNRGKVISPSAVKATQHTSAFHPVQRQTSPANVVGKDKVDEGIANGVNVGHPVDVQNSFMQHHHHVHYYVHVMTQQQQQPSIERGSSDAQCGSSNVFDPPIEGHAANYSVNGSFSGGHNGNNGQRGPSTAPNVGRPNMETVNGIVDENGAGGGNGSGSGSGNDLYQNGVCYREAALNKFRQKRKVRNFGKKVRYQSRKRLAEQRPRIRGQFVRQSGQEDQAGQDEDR

binding (OsPRR1 (rice) [1]): binds
binding (OsPRR1 (rice) [2]): binds
binding (OsPRR73 (rice)): no binding
B1: OsPRR37 (protein, UniProt Q0D3B6 1-742)
chain: MMGTAHHNQTAGSALGVGVGDANDAVPGAGGGGYSDPDGGPISGVQRPPQVCWERFIQKKTIKVLLVDSDDSTRQVVSALLRHCMYEVIPAENGQQAWTYLEDMQNSIDLVLTEVVMPGVSGISLLSRIMNHNICKNIPVIMMSSNDAMGTVFKCLSKGAVDFLVKPIRKNELKNLWQHVWRRCHSSSGSGSESGIQTQKCAKSKSGDESNNNNGSNDDDDDDGVIMGLNARDGSDNGSGTQAQSSWTKRAVEIDSPQAMSPDQLADPPDSTCAQVIHLKSDICSNRWLPCTSNKNSKKQKETNDDFKGKDLEIGSPRNLNTAYQSSPNERSIKPTDRRNEYPLQNNSKEAAMENLEESSVRAADLIGSMAKNMDAQQAARAANAPNCSSKVPEGKDKNRDNIMPSLELSLKRSRSTGDGANAIQEEQRNVLRRSDLSAFTRYHTPVASNQGGTGFMGSCSLHDNSSEAMKTDSAYNMKSNSDAAPIKQGSNGSSNNNDMGSTTKNVVTKPSTNKERVMSPSAVKANGHTSAFHPAQHWTSPANTTGKEKTDEVANNAAKRAQPGEVQSNLVQHPRPILHYVHFDVSRENGGSGAPQCGSSNVFDPPVEGHAANYGVNGSNSGSNNGSNGQNGSTTAVNAERPNMEIANGTINKSGPGGGNGSGSGSGNDMYLKRFTQREHRVAAVIKFRQKRKERNFGKKVRYQSRKRLAEQRPRVRGQFVRQAVQDQQQQGGGREAAADR
